The results in this text go back to a collection of fitness landscapes (doi:10.1016/j.celrep.2020.107928).

B1: Caulobacter ParB omega fusion; a variant is named by its letters at X, in order, B8GW30 (parent)
chain: MESVVVGEPGMSEGRRGLGRGLSALLGEVDAAPAQAPGEQLGGSREAPIEILQRNPDQPRRTFREEDLEDLSNSIREKGVLQPILVRPSPDTAGEYQIVAGERAWRAAQRAGLKTVPIMVRELDDLAVLEIGIIENVQRADLNVLEEALSYKVLMEKFERTQENIAQTIGKSXSHVANXMRLLXLPDEVQSYLVSGELTAXHARAIAAAADPVALAKQIIEGGLSVRETEALARKAPNLSAGKSKGGRPPRVKDTDTQALESDLSSVLGLDVSIDHRGSTGTLTITYATLEQLDDLCNRLTRGI

In all, about 81,000 sequences were measured (“one-hybrid fitness for binding NBS DNA”: median about -0.1, highest 2% from about 0.36 on). This is one part of the list.

In the assay the parent is B1. The assay is described as follows: one-hybrid fitness for binding NBS DNA (the Noc-binding site; scaled: cognate 1, non-cognate 0); higher = stronger binding. The settings on record: with NBS DNA site. An outline of the steps: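 Pre- and post-selection plasmids were Illumina-sequenced, three replicate libraries were pooled, and any variant with under 10 reads was removed. The libraries were Caulobacter ParB with four specificity codons randomised, selected in E. coli USO through a HIS3 reporter whose site is 19 bp from the promoter. Cells grew 48 hours at 37°C on M9 without histidine, with 0.1 mM IPTG and 5 mM 3-AT. Fitness is the log change in variant-to-wild-type read ratio, rescaled against cognate and non-cognate.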
For the variant QMTA, the “one-hybrid fitness for binding NBS DNA” value amounted to 0.306.

For the variant PRDK, the “one-hybrid fitness for binding NBS DNA” value was no more than 0.2.

With KNQM, the “one-hybrid fitness for binding NBS DNA” value is no more than 0.2.

As for WRIF, the “one-hybrid fitness for binding NBS DNA” value is no more than 0.2.

On to QYQK, for which the “one-hybrid fitness for binding NBS DNA” value is no more than 0.2.

On to TMRD, for which the “one-hybrid fitness for binding NBS DNA” value is no more than 0.2.

Turning to RMND, the “one-hybrid fitness for binding NBS DNA” value was no more than 0.2.

As for DYRL, the “one-hybrid fitness for binding NBS DNA” value was no more than 0.2.

With NLPL, the “one-hybrid fitness for binding NBS DNA” value was no more than 0.2.

For DQSS, the “one-hybrid fitness for binding NBS DNA” value was no more than 0.2.

Regarding PTLE, the “one-hybrid fitness for binding NBS DNA” value was no more than 0.2.

As for VIMT, the “one-hybrid fitness for binding NBS DNA” value is no more than 0.2.

As to RVAD, the “one-hybrid fitness for binding NBS DNA” value was no more than 0.2.

On to ISYK, for which the “one-hybrid fitness for binding NBS DNA” value was no more than 0.2.

Consider VRGV, for which the “one-hybrid fitness for binding NBS DNA” value is no more than 0.2.

With STVL, the “one-hybrid fitness for binding NBS DNA” value is no more than 0.2.

For the variant ELAH, the “one-hybrid fitness for binding NBS DNA” value is no more than 0.2.

As for HCSL, the “one-hybrid fitness for binding NBS DNA” value is no more than 0.2.

SGKS: the “one-hybrid fitness for binding NBS DNA” value was no more than 0.2.

With MGMR, the “one-hybrid fitness for binding NBS DNA” value was no more than 0.2.

Consider HPFM, for which the “one-hybrid fitness for binding NBS DNA” value is no more than 0.2.

As to SNAN, the “one-hybrid fitness for binding NBS DNA” value is no more than 0.2.

As to RRNT, the “one-hybrid fitness for binding NBS DNA” value stood at 0.785.

For the variant CLIA, the “one-hybrid fitness for binding NBS DNA” value was no more than 0.2.

With GAAP, the “one-hybrid fitness for binding NBS DNA” value was no more than 0.2.

Regarding ITIT, the “one-hybrid fitness for binding NBS DNA” value was no more than 0.2.

Turning to WTPE, the “one-hybrid fitness for binding NBS DNA” value was no more than 0.2.

For the variant RCHC, the “one-hybrid fitness for binding NBS DNA” value was found to be 0.237.

As for KFMS, the “one-hybrid fitness for binding NBS DNA” value was no more than 0.2.

Turning to HSYI, the “one-hybrid fitness for binding NBS DNA” value was no more than 0.2.

As for LKHL, the “one-hybrid fitness for binding NBS DNA” value was no more than 0.2.

Consider YRTL, for which the “one-hybrid fitness for binding NBS DNA” value is no more than 0.2.

Take HHDT: the “one-hybrid fitness for binding NBS DNA” value was no more than 0.2.

For YCTS, the “one-hybrid fitness for binding NBS DNA” value was no more than 0.2.

Take SQSL: the “one-hybrid fitness for binding NBS DNA” value is no more than 0.2.

YKTG: the “one-hybrid fitness for binding NBS DNA” value was no more than 0.2.

With AVLF, the “one-hybrid fitness for binding NBS DNA” value was no more than 0.2.

As for AMGP, the “one-hybrid fitness for binding NBS DNA” value was no more than 0.2.

In the case of YDNT, the “one-hybrid fitness for binding NBS DNA” value was no more than 0.2.

Take LHPV: the “one-hybrid fitness for binding NBS DNA” value is no more than 0.2.

Consider FRMG, for which the “one-hybrid fitness for binding NBS DNA” value is no more than 0.2.

Take PFPC: the “one-hybrid fitness for binding NBS DNA” value is no more than 0.2.

RRSK: the “one-hybrid fitness for binding NBS DNA” value turned out to be 0.378.

Consider GSYP, for which the “one-hybrid fitness for binding NBS DNA” value is no more than 0.2.

With EPLI, the “one-hybrid fitness for binding NBS DNA” value was no more than 0.2.

Turning to IIGI, the “one-hybrid fitness for binding NBS DNA” value was no more than 0.2.

Take ASGN: the “one-hybrid fitness for binding NBS DNA” value was no more than 0.2.

With FLDK, the “one-hybrid fitness for binding NBS DNA” value was no more than 0.2.

Regarding GRNS, the “one-hybrid fitness for binding NBS DNA” value was no more than 0.2.

With VIEN, the “one-hybrid fitness for binding NBS DNA” value is no more than 0.2.

As for QQNC, the “one-hybrid fitness for binding NBS DNA” value was 0.265.

Regarding SCIS, the “one-hybrid fitness for binding NBS DNA” value was no more than 0.2.

Consider QKKG, for which the “one-hybrid fitness for binding NBS DNA” value is 0.332.

Turning to WCRK, the “one-hybrid fitness for binding NBS DNA” value was no more than 0.2.

Consider GGET, for which the “one-hybrid fitness for binding NBS DNA” value is no more than 0.2.

As to MISY, the “one-hybrid fitness for binding NBS DNA” value was no more than 0.2.

As for GYTR, the “one-hybrid fitness for binding NBS DNA” value is no more than 0.2.

For KKSY, the “one-hybrid fitness for binding NBS DNA” value was no more than 0.2.

Consider HQWG, for which the “one-hybrid fitness for binding NBS DNA” value was no more than 0.2.

As to VARD, the “one-hybrid fitness for binding NBS DNA” value was no more than 0.2.

In the case of NTQS, the “one-hybrid fitness for binding NBS DNA” value was no more than 0.2.

On to MGKS, for which the “one-hybrid fitness for binding NBS DNA” value is no more than 0.2.

Take PGDL: the “one-hybrid fitness for binding NBS DNA” value was no more than 0.2.

As for DSQG, the “one-hybrid fitness for binding NBS DNA” value was no more than 0.2.

As to DQTS, the “one-hybrid fitness for binding NBS DNA” value is no more than 0.2.

With YPNS, the “one-hybrid fitness for binding NBS DNA” value is no more than 0.2.

Take RCNS: the “one-hybrid fitness for binding NBS DNA” value was 0.557.

Take WDSP: the “one-hybrid fitness for binding NBS DNA” value is no more than 0.2.

With TRMA, the “one-hybrid fitness for binding NBS DNA” value was no more than 0.2.

For the variant SGKF, the “one-hybrid fitness for binding NBS DNA” value was no more than 0.2.

Consider DEPL, for which the “one-hybrid fitness for binding NBS DNA” value is no more than 0.2.

Turning to IKCC, the “one-hybrid fitness for binding NBS DNA” value is no more than 0.2.

Take IESL: the “one-hybrid fitness for binding NBS DNA” value is no more than 0.2.

For SSPW, the “one-hybrid fitness for binding NBS DNA” value is no more than 0.2.

RLGN: the “one-hybrid fitness for binding NBS DNA” value is no more than 0.2.

With ASPG, the “one-hybrid fitness for binding NBS DNA” value is no more than 0.2.

For the variant PLIQ, the “one-hybrid fitness for binding NBS DNA” value is no more than 0.2.

Turning to QENG, the “one-hybrid fitness for binding NBS DNA” value was no more than 0.2.

LCAE: the “one-hybrid fitness for binding NBS DNA” value was no more than 0.2.

Take CRKW: the “one-hybrid fitness for binding NBS DNA” value was no more than 0.2.

For the variant DNSC, the “one-hybrid fitness for binding NBS DNA” value is no more than 0.2.

With TRQM, the “one-hybrid fitness for binding NBS DNA” value was no more than 0.2.

For the variant RYSM, the “one-hybrid fitness for binding NBS DNA” value was no more than 0.2.

For TSRW, the “one-hybrid fitness for binding NBS DNA” value was no more than 0.2.

Turning to MRSR, the “one-hybrid fitness for binding NBS DNA” value is no more than 0.2.

As for VGNT, the “one-hybrid fitness for binding NBS DNA” value is no more than 0.2.

As to HCRV, the “one-hybrid fitness for binding NBS DNA” value is no more than 0.2.

As to KLPH, the “one-hybrid fitness for binding NBS DNA” value was no more than 0.2.

Consider RHEC, for which the “one-hybrid fitness for binding NBS DNA” value is no more than 0.2.

Consider PPYS, for which the “one-hybrid fitness for binding NBS DNA” value is no more than 0.2.

In the case of AKLF, the “one-hybrid fitness for binding NBS DNA” value was no more than 0.2.

Take RIND: the “one-hybrid fitness for binding NBS DNA” value is no more than 0.2.

In the case of CKFS, the “one-hybrid fitness for binding NBS DNA” value was no more than 0.2.

On to SSEA, for which the “one-hybrid fitness for binding NBS DNA” value is no more than 0.2.

As for NEPT, the “one-hybrid fitness for binding NBS DNA” value was no more than 0.2.

Take KAMC: the “one-hybrid fitness for binding NBS DNA” value was no more than 0.2.

Consider RPAE, for which the “one-hybrid fitness for binding NBS DNA” value was no more than 0.2.

Consider DRPT, for which the “one-hybrid fitness for binding NBS DNA” value is no more than 0.2.
